Source: paper PMC4336329 (PLoS ONE, 2015)
Out of some 310,000 compounds screened, about 2,200 (0.71%) showed an effect of 50% or more. Effects have a minus sign here. The list shows a part of the results.

target: human ether-à-go-go-related gene (hERG) potassium channel (human, UniProt Q12809); assay: primary screen, population patch clamp on CHO cells stably expressing hERG
Sequence (Q12809 whole entry, looked up): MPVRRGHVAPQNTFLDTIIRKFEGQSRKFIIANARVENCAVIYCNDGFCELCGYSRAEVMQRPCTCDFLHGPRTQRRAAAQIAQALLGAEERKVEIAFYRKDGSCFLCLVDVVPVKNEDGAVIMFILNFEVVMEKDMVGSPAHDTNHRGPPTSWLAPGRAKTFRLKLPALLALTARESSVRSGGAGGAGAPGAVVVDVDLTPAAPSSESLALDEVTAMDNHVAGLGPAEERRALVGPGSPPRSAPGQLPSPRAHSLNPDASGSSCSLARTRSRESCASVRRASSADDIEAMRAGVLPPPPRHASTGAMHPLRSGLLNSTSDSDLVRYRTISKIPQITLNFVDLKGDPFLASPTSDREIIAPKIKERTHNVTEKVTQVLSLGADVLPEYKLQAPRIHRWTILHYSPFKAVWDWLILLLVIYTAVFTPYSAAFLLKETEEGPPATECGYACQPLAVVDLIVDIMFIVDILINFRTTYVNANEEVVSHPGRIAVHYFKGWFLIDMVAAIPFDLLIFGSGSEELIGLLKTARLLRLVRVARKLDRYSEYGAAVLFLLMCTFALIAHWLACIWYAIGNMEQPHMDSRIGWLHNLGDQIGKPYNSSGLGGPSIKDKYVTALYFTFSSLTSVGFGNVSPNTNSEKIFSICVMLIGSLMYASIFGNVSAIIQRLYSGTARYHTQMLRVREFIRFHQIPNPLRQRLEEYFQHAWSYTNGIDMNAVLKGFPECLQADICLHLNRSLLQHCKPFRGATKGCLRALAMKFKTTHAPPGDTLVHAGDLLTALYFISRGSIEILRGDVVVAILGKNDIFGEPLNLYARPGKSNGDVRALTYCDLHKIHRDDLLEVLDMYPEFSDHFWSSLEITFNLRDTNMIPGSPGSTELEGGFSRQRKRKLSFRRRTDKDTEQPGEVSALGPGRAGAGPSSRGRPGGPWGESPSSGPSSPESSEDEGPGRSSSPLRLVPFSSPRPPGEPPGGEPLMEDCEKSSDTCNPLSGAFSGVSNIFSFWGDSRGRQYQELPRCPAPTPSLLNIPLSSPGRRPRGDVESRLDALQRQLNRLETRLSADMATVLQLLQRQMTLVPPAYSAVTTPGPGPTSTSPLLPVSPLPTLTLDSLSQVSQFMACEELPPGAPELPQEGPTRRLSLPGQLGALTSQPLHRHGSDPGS

Structure (SMILES) | hERG current change (%, negative = inhibition) at 1uM [%]
CCCN1CCc2c(sc(NC(=O)c3ccc(S(=O)(=O)N4CCN(C(=O)OCC)CC4)cc3)c2C(N)=O)C1 | 9.17
Cc1ccc(OCC(=O)NCCS(=O)(=O)N2CCN(c3ccccc3)CC2)cc1 | 0.887
CCOc1cc(/C=C2/C(=N)N3C=CSC3=NC2=O)ccc1OCCCOc1ccccc1C | 12.3
Cc1ccc(Nc2nnc(-c3ccccc3N)o2)cc1C | 16.8
O=S(=O)(c1ccc(Br)cc1Cl)N1CC[NH+](CCO)CC1.[Cl-] | 6.69
COC(=O)c1oc2ccc(Br)cc2c1-n1cccc1 | 9.79
COc1ccc(-c2csc(NC(=O)CCS(=O)(=O)c3ccccc3)n2)c(OC)c1 | 8.63
CCOC(=O)C1CCN(C(=O)CCNS(=O)(=O)c2ccc3c(c2)CCN3C(=O)CC)CC1 | 12.3
Cc1cc(Cl)ccc1Oc1ccc(C(N)=O)cc1[N+](=O)[O-] | 16.2
O=C(CN1C(=O)COc2ccc(Cl)cc21)Nc1ccc2c(c1)OCCO2 | 14.2
Cc1c(C)c(C)c(C(=O)CCc2cccc(NC(=O)CCC(=O)O)c2)c(C)c1C | 3.31
CCn1c(SCC(=O)N2CCCCC2)nc2c(c1=O)SC(C)C2 (centres unmarked) | 9.77
COc1ccc(/C=N/N2CCOCC2)cc1O | 6.81
S=C(c1ccc(N2CCCC2)cc1)N1CCCCC1 | 13
CC1(c2cccc(Br)c2)NC(=O)N(CC(=O)Nc2ccc(F)cc2)C1=O (centres unmarked) | 8.46
O=C(CC(C(=O)O)C1CCCO1)NCCc1ccc2c(c1)OCO2 (centres unmarked) | -5.37
COc1ccc2ccccc2c1/C=N/NC(=O)c1cccc(Br)c1 | 16.5
CC(=O)NCC(=O)OCC(=O)c1ccc(Br)cc1 | 13.2
CCc1noc(C)c1C(=O)NNC(=O)c1cc(OC)cc(OC)c1 | 9.15
N#C/C(=C\c1ccc2c(c1)OCCO2)C(=O)Nc1nccs1 | 18.4
Cc1cc([N+](=O)[O-])nn1CCCC(=O)Nc1cc(Oc2ccccc2)cc([N+](=O)[O-])c1 | -3.87
CC(C)C(NS(=O)(=O)c1cccs1)C(=O)N1CCc2ccccc2C1 (centres unmarked) | 15.8

Structure (SMILES) | hERG current change (%, negative = inhibition) at 1uM [%]
COCCn1c(N)c(N(Cc2ccccc2)C(=O)CSCC(=O)Nc2ccc(C)cc2)c(=O)[nH]c1=O | 4.15
Cc1ccc(N2C(=O)N(CC(=O)Nc3cc(F)ccc3C)C(=O)C2C)cc1 (centres unmarked) | 16.4
Cc1cc(=O)[nH]c(SCC(=O)O)c1C#N | 17.8
Cc1cc(C(=O)NC2CCCCC2)c2cc(F)ccc2n1 | 9.51
Cc1cc(N2C(=O)C(O)=C(C(=O)c3ccco3)C2c2ccc(O)cc2)no1 (centres unmarked) | 16.3
COc1cc(CCCN2C(N)=NC[C@@H]2Cc2ccccc2)cc(OC)c1OC | 14.3
Cc1c(/C=N/NC(=O)c2cc(Br)ccc2O)c(=O)n(C)c(=O)n1C | 6.15
Cc1ccc(C)c(S(=O)(=O)N2CCCOC2CNC(=O)C(=O)NCCC2=CCCCC2)c1 (centres unmarked) | 16.5
Cc1cc(C)c(C#N)c(SCS(=O)c2ccc(C(C)(C)C)cc2)n1 (centres unmarked) | 8.89
Cc1ccccc1N1CCN(C(=O)CN2C(=O)c3ccccc3C2=O)CC1 | 4.17
CC1=C(C(=O)Nc2ccccc2)C(c2ccc(O)cc2)N2C(=O)CSC2=N1 (centres unmarked) | 2.2
COc1ccc(Cn2c(=O)c3[nH]cnc3n(-c3ccccc3C)c2=O)cc1 | 6.75
Cc1ccc(CNC(=O)C2CCC(=O)N(CCc3cccc(F)c3)C2)cc1 (centres unmarked) | -0.875
COC(=O)/C(C#N)=C/c1c(N2CCN(c3ccc(OC)cc3)CC2)nc2c(C)cccn2c1=O | 8.7
Cc1cc(SCc2cccc(Cl)c2)nc(=O)[nH]1 | 11.4
CSCC[C@H](NC(=O)c1ccc(Br)o1)c1nnc2ccccn12 | 11.8
Cc1ccc(NC(=O)CCC(=O)NNC(=O)COc2cccc3ccccc23)c(C)c1 | 4.07
CCn1c(SCC(=O)NCc2cccs2)nnc1-c1ccncc1 | 18.9
COc1ccc(C(=O)NCC(c2ccco2)N2CCc3ccccc3C2)cc1 (centres unmarked) | 4.84
O=C(Nc1ccc(C(=O)O)cc1)/C(=C\C=C\c1ccccc1)NC(=O)c1ccccc1Cl | 2.62
CC1(C(=O)N2CC3(CC(c4cccc(NC(=O)COc5ccc(Cl)cc5)c4)=NO3)C[C@@H]2C(N)=O)CC1 (some centres unmarked) | 14.3
CCOC(=O)c1c(NC(=O)COc2ccccc2C#N)sc2c1CC(C)(C)NC2(C)C | 11.1
